# The supplement of paper PMC4604168 (melanoma cell lines)
# The other results are listed elsewhere or left out. Repeats are few or missing, and single values can be far off.
# Test system: A2058
# Test: cell count relative to DMSO control; melanoma cells; higher = more viable cells
# Settings: library dose: standard library concentration; 72 h
# 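Further: cells treated in 1,536-well plates, then fixed and DAPI-stained, with nuclei counted from automated high-throughput microscope images.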
row,Structure (SMILES),cell count [%]
1,"COc1cc([C@@H]2c3cc4c(cc3[C@@H](O[C@@H]3O[C@@H]5CO[C@@H](C)O[C@H]5[C@H](O)[C@H]3O)[C@H]3COC(=O)[C@H]23)OCO4)cc(OC)c1O [etoposide] + C[C@@H](N)c1ccc(C(=O)Nc2ccnc3[nH]ccc23)cc1 [RKI983] (first compound 0.1 µM, partner dose 2 µM)",47.2
2,"CCN(CC)CCNC(=O)c1c(C)[nH]c(/C=C2\C(=O)Nc3ccc(F)cc32)c1C [sunitinib] + C[C@]1(c2nc3c(C(N)=O)cccc3[nH]2)CCCN1 [Veliparib] (first compound 2 µM, partner dose 7 µM)",59.1
3,"C[C@]1(O)C[C@@H](c2nc(-c3ccc4ccc(-c5ccccc5)nc4c3)c3c(N)nccn32)C1 + COc1cc(Nc2ncc(F)c(Nc3ccc4c(n3)NC(=O)C(C)(C)O4)n2)cc(OC)c1OC [Tamatinib] (first compound 2 µM, partner dose 2 µM)",61.4
4,"Cn1cnc2c(F)c(Nc3ccc(Br)cc3Cl)c(C(=O)NOCCO)cc21 [selumetinib] + Cn1nnc2c(C(N)=O)ncn2c1=O [temozolomide] (first compound 0.075 µM, partner dose 10 µM)",61.1
5,"COc1cc([C@@H]2c3cc4c(cc3[C@@H](O[C@@H]3O[C@@H]5CO[C@@H](C)O[C@H]5[C@H](O)[C@H]3O)[C@H]3COC(=O)[C@H]23)OCO4)cc(OC)c1O [etoposide] + C[C@]1(O)C[C@@H](c2nc(-c3ccc4ccc(-c5ccccc5)nc4c3)c3c(N)nccn32)C1 [OSI906] (first compound 0.1 µM, partner dose 2 µM)",79.2
6,"CCN(CC)CCNC(=O)c1c(C)[nH]c(/C=C2\C(=O)Nc3ccc(F)cc32)c1C [sunitinib] + CN1CCN(c2ccc3nc(-c4c(N)c5c(F)cccc5[nH]c4=O)[nH]c3c2)CC1 [Dovitinib] (first compound 2 µM, partner dose 0.5 µM)",51.9
7,"C[C@]1(O)C[C@@H](c2nc(-c3ccc4ccc(-c5ccccc5)nc4c3)c3c(N)nccn32)C1 + Nc1ncn([C@H]2C[C@H](O)[C@@H](CO)O2)c(=O)n1 [decitabine] (first compound 2 µM, partner dose 0.5 µM)",75.9
8,"CCN(CC)CCNC(=O)c1c(C)[nH]c(/C=C2\C(=O)Nc3ccc(F)cc32)c1C [sunitinib] + OCc1c[nH]c2ccccc12 [Indole-3-carbinol] (first compound 2 µM, partner dose 4 µM)",74.4
9,"COc1cc([C@@H]2c3cc4c(cc3[C@@H](O[C@@H]3O[C@@H]5CO[C@@H](C)O[C@H]5[C@H](O)[C@H]3O)[C@H]3COC(=O)[C@H]23)OCO4)cc(OC)c1O [etoposide] + CN(c1ncccc1CNc1nc(Nc2ccc3c(c2)CC(=O)N3)ncc1C(F)(F)F)S(C)(=O)=O [PF562271] (first compound 0.1 µM, partner dose 0.4 µM)",54.6
10,"Cn1cnc2c(F)c(Nc3ccc(Br)cc3Cl)c(C(=O)NOCCO)cc21 [selumetinib] + Cc1ccc(NC(=O)c2cccc(N(C)C)c2)cc1NC(=O)c1ccc(O)cc1 [ZM336372] (first compound 0.075 µM, partner dose 10 µM)",96.8
11,"C[C@]1(O)C[C@@H](c2nc(-c3ccc4ccc(-c5ccccc5)nc4c3)c3c(N)nccn32)C1 + Nc1cccc2c1CN(C1CCC(=O)NC1=O)C2=O [lenalidomide] (first compound 2 µM, partner dose 5 µM)",94.7
12,"C[C@]1(O)C[C@@H](c2nc(-c3ccc4ccc(-c5ccccc5)nc4c3)c3c(N)nccn32)C1 + CNC(=O)c1cc(Oc2ccc(NC(=O)Nc3ccc(Cl)c(C(F)(F)F)c3)cc2)ccn1 [sorafenib] (first compound 2 µM, partner dose 2 µM)",105
13,"COc1cc([C@@H]2c3cc4c(cc3[C@@H](O[C@@H]3O[C@@H]5CO[C@@H](C)O[C@H]5[C@H](O)[C@H]3O)[C@H]3COC(=O)[C@H]23)OCO4)cc(OC)c1O [etoposide] + COC(=O)c1sccc1S(=O)(=O)Nc1ccc(Nc2ccccc2)cc1OC [GSK0660] (first compound 0.1 µM, partner dose 5 µM)",88.4
14,"Cn1cnc2c(F)c(Nc3ccc(Br)cc3Cl)c(C(=O)NOCCO)cc21 [selumetinib] + CS(=O)(=O)c1ccc(C(=O)Nc2ccc(Cl)c(-c3ccccn3)c2)c(Cl)c1 [vismodegib] (first compound 0.075 µM, partner dose 5 µM)",92.5
15,"COc1cc([C@@H]2c3cc4c(cc3[C@@H](O[C@@H]3O[C@@H]5CO[C@@H](C)O[C@H]5[C@H](O)[C@H]3O)[C@H]3COC(=O)[C@H]23)OCO4)cc(OC)c1O [etoposide] + Cc1ccc(NC(=O)c2cccc(N(C)C)c2)cc1NC(=O)c1ccc(O)cc1 [ZM336372] (first compound 0.1 µM, partner dose 10 µM)",96.4
16,"COc1cc([C@@H]2c3cc4c(cc3[C@@H](O[C@@H]3O[C@@H]5CO[C@@H](C)O[C@H]5[C@H](O)[C@H]3O)[C@H]3COC(=O)[C@H]23)OCO4)cc(OC)c1O [etoposide] + Cn1c(=O)n(-c2ccc(C(C)(C)C#N)cc2)c2c3cc(-c4cnc5ccccc5c4)ccc3ncc21 [NVP-BEZ235] (first compound 0.1 µM, partner dose 0.02 µM)",56.8
17,"COc1cc([C@@H]2c3cc4c(cc3[C@@H](O[C@@H]3O[C@@H]5CO[C@@H](C)O[C@H]5[C@H](O)[C@H]3O)[C@H]3COC(=O)[C@H]23)OCO4)cc(OC)c1O [etoposide] + COc1ccc(C2=N[C@@H](c3ccc(Cl)cc3)[C@@H](c3ccc(Cl)cc3)N2C(=O)N2CCNC(=O)C2)c(OC(C)C)c1 [Nutlin-3] (first compound 0.1 µM, partner dose 0.5 µM)",82.4
18,"CCN(CC)CCNC(=O)c1c(C)[nH]c(/C=C2\C(=O)Nc3ccc(F)cc32)c1C [sunitinib] + Cn1c(Nc2ccc(C(F)(F)F)cc2)nc2cc(Oc3ccnc(-c4ncc(C(F)(F)F)[nH]4)c3)ccc21 [CHIR265] (first compound 2 µM, partner dose 0.4 µM)",65.7
19,"COc1cc([C@@H]2c3cc4c(cc3[C@@H](O[C@@H]3O[C@@H]5CO[C@@H](C)O[C@H]5[C@H](O)[C@H]3O)[C@H]3COC(=O)[C@H]23)OCO4)cc(OC)c1O [etoposide] + O=C(Nc1cccc(Cl)c1)Nc1ncc(CCNc2ncnc3ccsc23)s1 [SNS314] (first compound 0.1 µM, partner dose 0.004 µM)",70.2
20,"CCN(CC)CCNC(=O)c1c(C)[nH]c(/C=C2\C(=O)Nc3ccc(F)cc32)c1C [sunitinib] + Cn1cncc1[C@@](N)(c1ccc(Cl)cc1)c1ccc2c(c1)c(-c1cccc(Cl)c1)cc(=O)n2C [tipifarnib] (first compound 2 µM, partner dose 0.05 µM)",57
